Results reported in the supplement of paper PMC3334620.
Whole data set: some 33,000 sequences, median “E-score (-0.5 to 0.5)” near -0.036, cut for the highest 2% near 0.37. The list shows a part of the results.

target: T1, Yer064c (UniProt P40041); test: PBM E-score (8-mer binding enrichment) (E-score (-0.5 to 0.5)); higher = stronger / more preferred TF binding; most listed sequences are background and not binding sites; details: protein concentration: 200 nM; construct: GST-full length
T1 sequence: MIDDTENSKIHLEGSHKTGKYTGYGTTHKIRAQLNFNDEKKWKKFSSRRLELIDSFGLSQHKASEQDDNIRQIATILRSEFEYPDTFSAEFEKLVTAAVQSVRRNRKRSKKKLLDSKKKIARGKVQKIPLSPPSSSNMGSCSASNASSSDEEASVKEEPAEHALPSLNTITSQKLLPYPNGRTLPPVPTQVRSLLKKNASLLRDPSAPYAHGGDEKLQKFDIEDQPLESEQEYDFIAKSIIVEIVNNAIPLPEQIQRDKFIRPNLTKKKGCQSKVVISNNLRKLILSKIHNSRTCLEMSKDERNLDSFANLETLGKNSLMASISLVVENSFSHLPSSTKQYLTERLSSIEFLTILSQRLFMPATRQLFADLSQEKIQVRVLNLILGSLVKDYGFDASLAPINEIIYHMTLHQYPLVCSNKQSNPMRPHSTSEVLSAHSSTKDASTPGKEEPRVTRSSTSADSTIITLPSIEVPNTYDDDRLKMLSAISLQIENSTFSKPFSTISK
In short: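 Yeast transcription factors carrying a GST tag, as full-length proteins or DNA-binding domains, were produced by PURExpress in vitro transcription/translation. About 100-200 nM protein was applied to universal all-10-mer Agilent arrays, double-stranded by primer extension on fresh or once-stripped slides. Bound protein was detected with fluorescent anti-GST, and scans were normalised with masliner. The Universal PBM Analysis Suite gave each ungapped eight-base word, pooled with its reverse complement, an E-score, a modified Wilcoxon-Mann-Whitney statistic.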

Sequence | PBM E-score
GATAATTA | 0.0577
CGCTCAAA | -0.0349
CCCCGGAG | -0.24
AATTCTCT | -0.285
GTCACAAA | 0.261
GCCGCTCC | -0.231
ACACCTGT | 0.0517
CAGTTTGA | 0.113
CGCTGCAA | 0.0297
AAGGCGCT | -0.208
TATAAACA | 0.165
TATGTGCA | -0.113
CGCTGACG | -0.253
AATCTGCC | -0.0737
ACGAAACA | -0.0814
GTCTCCGA | 0.0595
ACTGGCCA | 0.147
AAATTAAA | 0.119
GTCTGCCA | -0.0597
AACGTCTT | -0.113
GTACCCTA | -0.129
GCATCAGA | 0.122
ACTAAACT | 0.242
CGTTTAAC | 0.108
AATTGGCT | 0.0484

Sequence | PBM E-score
ATGACAAA | -0.03
CGAGCTAG | 0.00121
AAGCCACC | -0.116
CCTGAGAG | -0.0818
ACCCGTTC | -0.184
AACCGCAT | 0.0875
AGTTCGCA | -0.0258
ATCGCGAC | 0.149
CCCAACGG | -0.0813
ATCTAACC | -0.0261
AGAGGACA | -0.186
GTGTCATA | 0.112
CGAAGGCG | -0.17
GACAGGCC | -0.241
CGAAAGGC | -0.281
GCGGCAGA | -0.176
AAAATTGA | 0.0494
AGTTTGCC | -0.178
CTACTGTA | -0.00156
TGGTCTAA | -0.00513
CCCTACCA | -0.127
CGCCGGTC | -0.19
CCGAGCCC | -0.0288
ATAGTTAA | 0.0478
GACAGCTC | -0.216

Sequence | PBM E-score
GTTGAGCA | -0.148
GAAAGGAC | 0.00876
GATTGTGA | 0.176
CGAAGCGC | -0.115
TACTCTCA | 0.0897
GGGACATA | -0.146
CCTTGTCG | -0.155
ATCTCATG | 0.167
AGGGCTCC | -0.31
AACTCAAG | 0.116
CGAAAGCG | -0.184
AGTTGGTA | 0.109
ACTTGGCG | -0.0875
GCGACCCC | -0.237
AAGAATAG | 0.0215
AATGGAAC | 0.0414
ACCAGAGC | 0.0188
CTACATGC | -0.0926
AAGGAGCT | -0.0608
GTCGTATA | 0.226
ACGGCAAG | -0.0123
ATCTGGCA | -0.118
CCAGACGA | -0.0439
ACTTGGAA | 0.0773
AATGCCAC | -0.0486

Sequence | PBM E-score
AACAGACG | -0.277
AAACTTCG | -0.259
GCAAAGAC | 0.081
GCATTCAC | -0.0705
ACATCGGC | -0.193
AAGAATAA | 0.0152
ACAATAGT | 0.122
CATCGGAG | 0.0629
CTGATCAA | 0.135
CTGCAAGC | -0.191
CCAGCAGA | -0.111
GAATAGAC | -0.0209
CCAAAAGG | -0.136
GTTGATCA | 0.162
ACATAATA | -0.0511
CCTCAATC | 0.206
ACTGATGA | 0.217
GAAACCGA | -0.137
GTGGGTGA | 0.194
AATCTAGG | 0.0277
AGCGTGTA | -0.0072
ACAGTGTG | 0.0397
GGAATTCA | -0.0346
ACAAAACT | -0.0935
CAAAAGCG | 0.0551

Sequence | PBM E-score
TGACCTCA | -0.00196
CACGGGGG | -0.17
GGAGTACA | 0.129
CAATGCTG | 0.00624
CTTGGCAA | -0.0407
AATTAAGT | 0.0867
CAGATCTG | -0.263
AATTCAGA | 0.0103
CGACAAAC | -0.0358
ACTGGAGC | -0.168
CGTCGTAC | -0.0504
GGCACGAA | -0.125
CCACGCTC | -0.308
ACAATGAG | 0.138
CTTCACAA | -0.143
ATCGACAC | -0.163
ACGGTGAC | 0.254
GCGAAGTA | -0.14
CACGGTGG | 0.0291
ACCGGGGC | -0.164
AAGCGGAC | -0.104
CGAGAAAC | -0.0973
GACCGCGC | -0.229
ATTCGCTG | 0.107
AACCGCTT | 0.0842

Sequence | PBM E-score
ATCGGGAG | 0.0774
AGGGCCCG | -0.161
TACCATGA | 0.131
ACAGACAT | 0.0189
ACGTTTGC | -0.0766
ACCAATCA | 0.243
GTCTTTCA | 0.0314
ACACTTTA | -0.0437
CAATTAGC | 0.0733
CCGTCATA | 0.0861
CTGATAAG | 0.0612
ACTAACTC | 0.297
ACGTCGAT | -0.0197
CCACGCCC | -0.379
CCCCCACA | -0.204
ATTCTCCA | -0.0149
AGACGGGA | -0.0599
ACTTGTCT | -0.0145
CTGCCGAC | 0.115
CCCCGGAA | -0.0848
CAACCTGG | -0.153
AAATCAGA | 0.158
ACATAAAA | 0.0977
ATCTTTCG | 0.0434
AACAGTGG | -0.153

Sequence | PBM E-score
CCTACCCC | -0.249
GATAGTAC | 0.0862
GAGGTTTA | -0.0754
GTAATAAC | 0.0905
CAGGCACA | -0.18
CTAGATGA | 0.109
AGAGGTGC | -0.25
GTGCTGGA | -0.152
ATGCCGGC | -0.309
ACGCTAAC | 0.0718
GCGACCGC | -0.221
GCAAGATA | -0.0351
CCTGTGGA | -0.0777
ACCCCGCG | -0.302
CCCCCAAC | -0.22
GTAGCAGA | -0.0296
TAGAACCA | 0.0965
AAGGAAGC | -0.368
GACGCCAC | -0.268
ATCGGACC | -0.118
ATTTAGAG | 0.219
AAGCGTTA | -0.101
